# Results: the supplement of paper PMC8728848
# Some of the results follow.
# Legend:
# Experiment in all cases: glycan array binding signal (z-score within array); higher = stronger binding
# Details in all cases: glycan notation: IUPAC condensed, linker removed
# [1] = target: Fuc(a1-2)Gal(b1-4)GlcNAc(b1-6)GalNAc
# How it was run: (§1)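 Columns mapping to the same glycan were averaged after glycan names were converted to IUPAC-condensed notation. The data come from 3228 arrays in the Consortium for Functional Glycomics database, limited to those with an available protein sequence. Binding is reported as a within-array Z-score averaged across arrays of one protein sequence and across linkers.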
# [2] = target: Fuc(a1-2)Gal(b1-4)GlcNAc6S
# How it was run: as §1
# [3] = target: Fuc(a1-2)Gal(b1-4)[Fuc(a1-3)]GlcNAc
# How it was run: as §1
# [4] = target: Fuc(a1-2)Gal(b1-4)[Fuc(a1-3)]GlcNAc(b1-2)Man(a1-3)[Fuc(a1-2)Gal(b1-4)[Fuc(a1-3)]GlcNAc(b1-2)Man(a1-6)]Man(b1-4)GlcNAc(b1-4)GlcNAc
# How it was run: as §1
# [5] = target: Fuc(a1-2)Gal(b1-4)[Fuc(a1-3)]GlcNAc(b1-2)Man(a1-3)[Fuc(a1-2)Gal(b1-4)[Fuc(a1-3)]GlcNAc(b1-2)Man(a1-6)]Man(b1-4)GlcNAc(b1-4)[Fuc(a1-6)]GlcNAc
# How it was run: as §1
# [6] = target: Fuc(a1-2)Gal(b1-4)[Fuc(a1-3)]GlcNAc(b1-2)[Fuc(a1-2)Gal(b1-4)[Fuc(a1-3)]GlcNAc(b1-4)]Man(a1-3)[Fuc(a1-2)Gal(b1-4)[Fuc(a1-3)]GlcNAc(b1-2)Man(a1-6)]Man(b1-4)GlcNAc(b1-4)GlcNAc
# How it was run: as §1
# [7] = target: Fuc(a1-2)Gal(b1-4)[Fuc(a1-3)]GlcNAc(b1-3)Gal(b1-4)[Fuc(a1-3)]GlcNAc
# How it was run: as §1
# [8] = target: Fuc(a1-2)Gal(b1-4)[Fuc(a1-3)]GlcNAc(b1-3)Gal(b1-4)[Fuc(a1-3)]GlcNAc(b1-3)Gal(b1-4)[Fuc(a1-3)]GlcNAc
# How it was run: as §1
# [9] = target: Fuc(a1-2)Gal(b1-4)[Fuc(a1-3)]GlcNAc(b1-3)GalNAc
# How it was run: as §1
# [10] = target: Fuc(a1-2)Gal(b1-4)[Fuc(a1-3)]GlcNAc(b1-3)[Neu5Ac(a2-6)Gal(b1-4)GlcNAc(b1-6)]Gal(b1-4)Glc
# How it was run: as §1
# [11] = target: Fuc(a1-2)Gal3S(b1-4)GlcNAc
# How it was run: as §1
# [12] = target: Fuc(a1-2)Gal6S(b1-3)GlcNAc
# How it was run: as §1
# [13] = target: Fuc(a1-2)Gal6S(b1-3)GlcNAc6S
# How it was run: as §1
# Fuc(a1-2)Gal6S(b1-4)Glc = target: Fuc(a1-2)Gal6S(b1-4)Glc
# How it was run: as §1
# [14] = target: Fuc(a1-2)Gal6S(b1-4)Glc6S
# How it was run: as §1
# [15] = target: Fuc(a1-2)Gal6S(b1-4)GlcNAc
# How it was run: as §1
# Fuc(a1-2)[Gal(a1-3)]Gal = target: Fuc(a1-2)[Gal(a1-3)]Gal
# How it was run: as §1
# [16] = target: Fuc(a1-2)[Gal(a1-3)]Gal(b1-3)GalNAc
# How it was run: as §1
# [17] = target: Fuc(a1-2)[Gal(a1-3)]Gal(b1-3)GalNAc(b1-3)Gal(a1-4)Gal(b1-4)Glc
# How it was run: as §1
# [18] = target: Fuc(a1-2)[Gal(a1-3)]Gal(b1-3)GlcNAc
# How it was run: as §1
# [19] = target: Fuc(a1-2)[Gal(a1-3)]Gal(b1-3)GlcNAc(b1-2)Man(a1-3)[Fuc(a1-2)[Gal(a1-3)]Gal(b1-3)GlcNAc(b1-2)Man(a1-6)]Man(b1-4)GlcNAc(b1-4)GlcNAc
# How it was run: as §1
# [20] = target: Fuc(a1-2)[Gal(a1-3)]Gal(b1-3)GlcNAc(b1-2)Man(a1-3)[Fuc(a1-2)[Gal(a1-3)]Gal(b1-3)GlcNAc(b1-2)Man(a1-6)]Man(b1-4)GlcNAc(b1-4)[Fuc(a1-6)]GlcNAc
# How it was run: as §1
# [21] = target: Fuc(a1-2)[Gal(a1-3)]Gal(b1-3)GlcNAc(b1-3)GalNAc
# How it was run: as §1
# [22] = target: Fuc(a1-2)[Gal(a1-3)]Gal(b1-3)GlcNAc(b1-6)GalNAc
# How it was run: as §1
# [23] = target: Fuc(a1-2)[Gal(a1-3)]Gal(b1-4)Glc
# How it was run: as §1
# [24] = target: Fuc(a1-2)[Gal(a1-3)]Gal(b1-4)GlcNAc
# How it was run: as §1
# [25] = target: Fuc(a1-2)[Gal(a1-3)]Gal(b1-4)GlcNAc(b1-2)Man
# How it was run: as §1
# [26] = target: Fuc(a1-2)[Gal(a1-3)]Gal(b1-4)GlcNAc(b1-2)Man(a1-3)[Fuc(a1-2)[Gal(a1-3)]Gal(b1-4)GlcNAc(b1-2)Man(a1-6)]Man(b1-4)GlcNAc(b1-4)GlcNAc
# How it was run: as §1
# [27] = target: Fuc(a1-2)[Gal(a1-3)]Gal(b1-4)GlcNAc(b1-2)Man(a1-3)[Fuc(a1-2)[Gal(a1-3)]Gal(b1-4)GlcNAc(b1-2)Man(a1-6)]Man(b1-4)GlcNAc(b1-4)[Fuc(a1-6)]GlcNAc
# How it was run: as §1
# [28] = target: Fuc(a1-2)[Gal(a1-3)]Gal(b1-4)GlcNAc(b1-3)GalNAc
# How it was run: as §1
# [29] = target: Fuc(a1-2)[Gal(a1-3)]Gal(b1-4)GlcNAc(b1-3)[Fuc(a1-2)[Gal(a1-3)]Gal(b1-4)GlcNAc(b1-6)]GalNAc
# How it was run: as §1
# [30] = target: Fuc(a1-2)[Gal(a1-3)]Gal(b1-4)GlcNAc(b1-6)GalNAc
# How it was run: as §1
# [31] = target: Fuc(a1-2)[Gal(a1-3)]Gal(b1-4)[Fuc(a1-3)]Glc
# How it was run: as §1
# [32] = target: Fuc(a1-2)[Gal(a1-3)]Gal(b1-4)[Fuc(a1-3)]GlcNAc
# How it was run: as §1
# [33] = target: Fuc(a1-2)[Gal(a1-3)]Gal(b1-4)[Fuc(a1-3)]GlcNAc(b1-3)GalNAc
# How it was run: as §1
# [34] = target: Fuc(a1-2)[Gal(a1-4)]Gal(b1-4)GlcNAc
# How it was run: as §1
# [35] = target: Fuc(a1-2)[GalNAc(a1-3)]Gal
# How it was run: as §1
# [36] = target: Fuc(a1-2)[GalNAc(a1-3)]Gal(b1-3)GalNAc(a1-3)[Fuc(a1-2)]Gal(b1-4)GlcNAc
# How it was run: as §1
binder,measurement,setting,value
MGL6A (Homo sapiens) (protein) MTRTYENFQYLENKVKVQGFKNGPLPLQSLLQRLCSGPCHLLLSLGLGLLLLVIICVVGFQNSKFQRDLVTLRTDFSNFTSNTVAEIQALTSQGSSLEETIASLKAEVEGFKQERQAVHSEMLLRVQQLVQDLKKLTCQVATLNNNGEEASTEGTCCPVNWVEHQDSCYWFSHSGMSWAEAEKYCQLKNAHLVVINSREEQNFVQKYLGSAYTWMGLSDPEGAWKWVDGTDYATGFQNWKPGQPDDWQGHGLGGGEDCAHFHPDGRWNDDVCQRPYHWVCEAGLGQTSQESH,glycan array binding signal (z-score),[1],4.02
same,glycan array binding signal (z-score),[2],-0.158
same,glycan array binding signal (z-score),[3],-0.273
same,glycan array binding signal (z-score),[4],0.033
same,glycan array binding signal (z-score),[5],-0.255
same,glycan array binding signal (z-score),[6],-0.234
same,glycan array binding signal (z-score),[7],-0.23
same,glycan array binding signal (z-score),[8],-0.254
same,glycan array binding signal (z-score),[9],-0.238
same,glycan array binding signal (z-score),[10],-0.267
same,glycan array binding signal (z-score),[11],-0.275
same,glycan array binding signal (z-score),[12],-0.274
same,glycan array binding signal (z-score),[13],-0.194
same,glycan array binding signal (z-score),Fuc(a1-2)Gal6S(b1-4)Glc,-0.304
same,glycan array binding signal (z-score),[14],-0.214
same,glycan array binding signal (z-score),[15],-0.241
same,glycan array binding signal (z-score),Fuc(a1-2)[Gal(a1-3)]Gal,-0.261
same,glycan array binding signal (z-score),[16],-0.249
same,glycan array binding signal (z-score),[17],-0.214
same,glycan array binding signal (z-score),[18],-0.272
same,glycan array binding signal (z-score),[19],-0.303
same,glycan array binding signal (z-score),[20],-0.273
same,glycan array binding signal (z-score),[21],-0.272
same,glycan array binding signal (z-score),[22],3.42
same,glycan array binding signal (z-score),[23],-0.266
same,glycan array binding signal (z-score),[24],-0.309
same,glycan array binding signal (z-score),[25],-0.272
same,glycan array binding signal (z-score),[26],-0.361
same,glycan array binding signal (z-score),[27],-0.263
same,glycan array binding signal (z-score),[28],-0.248
same,glycan array binding signal (z-score),[29],-0.254
same,glycan array binding signal (z-score),[30],-0.27
same,glycan array binding signal (z-score),[31],-0.261
same,glycan array binding signal (z-score),[32],-0.269
same,glycan array binding signal (z-score),[33],-0.261
same,glycan array binding signal (z-score),[34],-0.201
same,glycan array binding signal (z-score),[35],0.727
same,glycan array binding signal (z-score),[36],0.966
